This note sets out measurements from the supplement of paper PMC4604168 (melanoma cell lines).

Some test systems named below: SkMel30; SkMel5; UACC257; UACC62; WM115; WM1716; WM1745; WM3526; WM3619; WM451Lu.
Common to all, as to assay: cell count relative to DMSO control; melanoma cells; higher = more viable cells
Conditions in all cases: library dose: standard library concentration; 72 h

Each structure is given as a SMILES string. The list shows a part of the results. Most values come without repeats; read them as rough.
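Also: cells treated in 1,536-well plates, then fixed and DAPI-stained, with nuclei counted from automated high-throughput microscope images.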

With `O=C(O)C(=O)Nc1sc2c(c1C(=O)O)CCNC2` + c1cc(-c2cnn3cc(-c4ccc(OCCN5CCCCC5)cc4)cnc23)ccn1 [Dorsomorphin] (first compound 8.33333 µM, partner dose 2 µM), the cell count in the experiment on SkMel30 came out at 82.4%; in the experiment with SkMel5 it was 70.8%; with UACC257 it was 71.8%; in the experiment with UACC62, 95.9%; with WM115, 77.4%; in the experiment on WM1716 it was 73.3%. For the same compound, the cell count came to 50.9% with WM1745, 78.6% with WM3526, 89.2% in the experiment with WM3619 and 81.8% in the experiment on WM451Lu.
For the compound `COc1ccc(COc2ccc(Cc3cnc(N)nc3N)cc2OC)cc1` + O=S(=O)(c1ccccc1)N(CC(F)(F)F)c1ccc(C(O)(C(F)(F)F)C(F)(F)F)cc1 [T0901317] (first compound 5 µM, partner dose 7 µM), the cell count in the experiment on SkMel30 amounted to 104%; in the experiment with SkMel5, 66.7%; in the experiment on UACC257 it was 67.1%; in the experiment with UACC62, 66.7%; with WM115 it was 88.5%; with WM1716, 86%. Besides, the cell count was 71.5% in the experiment with WM1745, 82.6% with WM3526, 80.8% in the experiment with WM3619 and 96.1% with WM451Lu.
As for `COc1ccc(COc2ccc(Cc3cnc(N)nc3N)cc2OC)cc1` + Oc1cc(-c2nc(-c3ccccc3)[nH]c2-c2ccncc2)ccc1Cl [L779450] (first compound 5 µM, partner dose 1 µM), the cell count with SkMel30 worked out at 87.1%; in the experiment with SkMel5, 69.8%; in the experiment with UACC257, 85.7%; with UACC62, 64.1%; in the experiment with WM115, 48.5%; in the experiment with WM1716 it was 68.6%. In addition, the cell count in the experiment with WM1745 turned out to be 60.3%; in the experiment on WM3526 it was 53.7%; with WM3619, 82.8%; in the experiment with WM451Lu it was 53.3%.
For the compound `COc1cc2ncnc(Nc3ccc(Oc4ccccc4)cc3)c2cc1OC` + Oc1nc(-c2ccc(C(F)(F)F)cc2)nc2c1CSCC2 [XAV939] (first compound 10 µM, partner dose 10 µM), the cell count in the experiment on SkMel30 was 103%; with SkMel5 it was 54.1%; in the experiment with UACC257, 80.7%; in the experiment on UACC62, 52.6%; with WM115, 64.7%; with WM1716, 71.8%. In addition, the cell count with WM1745 was found to be 41.7%; with WM3526, 56.2%; with WM3619 it was 38.6%; in the experiment with WM451Lu, 93.1%.
As to `COc1ccc(COc2ccc(Cc3cnc(N)nc3N)cc2OC)cc1` + COc1cc(N2CCC(N3CCN(C)CC3)CC2)ccc1Nc1ncc(Cl)c(Nc2ccccc2S(=O)(=O)C(C)C)n1 [NVP-TAE684] (first compound 5 µM, partner dose 0.4 µM), the cell count with SkMel30 amounted to 111%; in the experiment on SkMel5, 58.9%; in the experiment with UACC257 it was 82.5%; with UACC62, 78.2%; in the experiment on WM115, 77.2%; in the experiment with WM1716, 76.1%. For the same compound, the cell count was 49.9% in the experiment with WM1745, 67.7% with WM3526, 66.5% in the experiment with WM3619 and 76.4% in the experiment with WM451Lu.
As to `O=C1NC(=O)/C(=C/c2ccc(-c3ccc(F)cc3O)o2)S1` + O=c1cc(-c2cccc3c2Sc2ccccc2S3)oc(N2CCOCC2)c1 [KU55933] (first compound 5 µM, partner dose 5 µM), the cell count stood at 97.5% in the experiment with SkMel30; 95.5% in the experiment with SkMel5; 105% with UACC257; 91.3% in the experiment with UACC62; 114% with WM115; 94.9% with WM1716. Moreover, the cell count in the experiment on WM1745 was found to be 104%; with WM3526, 68.2%; with WM3619 it was 101%; in the experiment with WM451Lu, 96.6%.
As for `c1cc(-c2cnn3cc(-c4ccc(OCCN5CCCCC5)cc4)cnc23)ccn1` [Dorsomorphin] + CCCCCCCCCCCC1=C(O)C(=O)C=C(O)C1=O [Embelin] (first compound 2 µM, partner dose 6 µM), the cell count was found to be 94.2% in the experiment with SkMel30; 88.6% in the experiment on SkMel5; 68.5% in the experiment on UACC257; 96.6% in the experiment with UACC62; 65.3% with WM115; 77.8% with WM1716. Besides, the cell count in the experiment on WM1745 came out at 50.4%; in the experiment with WM3526, 71.2%; with WM3619 it was 74.8%; in the experiment on WM451Lu, 61.9%.
As to `CCN(CC)CCCCNc1ncc2cc(-c3cc(OC)cc(OC)c3)c(NC(=O)NC(C)(C)C)nc2n1` + Oc1nc(-c2ccc(C(F)(F)F)cc2)nc2c1CSCC2 [XAV939] (first compound 0.5 µM, partner dose 10 µM), the cell count in the experiment with SkMel30 worked out at 108%; with SkMel5, 77.8%; with UACC257, 86.6%; with UACC62, 103%; in the experiment with WM115 it was 78.2%; with WM1716, 78.1%. Further, the cell count with WM1745 came to 68.5%; in the experiment with WM3526 it was 85.9%; with WM3619, 92.2%; in the experiment on WM451Lu, 89.2%.
For the compound `N#Cc1c(O)c2c(-c3ccc(-c4ccccc4O)cc3)csc2[nH]c1=O` + Oc1cc(-c2nc(-c3ccccc3)[nH]c2-c2ccncc2)ccc1Cl [L779450] (first compound 10 µM, partner dose 1 µM), the cell count in the experiment with SkMel30 is 86.3%; in the experiment on SkMel5, 102%; in the experiment with UACC257, 92.3%; in the experiment with UACC62, 67.9%; in the experiment on WM115, 70.4%; in the experiment on WM1716 it was 78%. Besides, the cell count in the experiment on WM1745 stood at 64.9%; in the experiment on WM3526 it was 70.1%; in the experiment with WM3619 it was 77.3%; in the experiment with WM451Lu, 65.2%.
As for `O=C1NC(=O)/C(=C/c2ccc(-c3ccc(F)cc3O)o2)S1` + CCCCCCCCCCCC1=C(O)C(=O)C=C(O)C1=O [Embelin] (first compound 5 µM, partner dose 6 µM), the cell count came out at 95.3% with SkMel30; 81.6% in the experiment with SkMel5; 105% with UACC257; 125% in the experiment on UACC62; 97.7% in the experiment on WM115; 94.8% in the experiment with WM1716. Further, the cell count with WM1745 turned out to be 66.4%; in the experiment on WM3526, 94.3%; in the experiment on WM3619, 89%; in the experiment on WM451Lu, 121%.
As to `COC(=O)c1sccc1S(=O)(=O)Nc1ccc(Nc2ccccc2)cc1OC` + CCCCCCCCCCCC1=C(O)C(=O)C=C(O)C1=O [Embelin] (first compound 5 µM, partner dose 6 µM), the cell count with SkMel30 is 93.9%; with SkMel5 it was 124%; with UACC257, 82.8%; in the experiment on UACC62, 96.4%; in the experiment on WM115 it was 101%; in the experiment on WM1716, 93.5%. Besides, the cell count in the experiment with WM1745 was 102%; in the experiment with WM3526 it was 127%; in the experiment on WM3619, 64.8%; in the experiment on WM451Lu, 86.8%.
